Experimental data from PubChem BioAssay AID1346428 (National Center for Advancing Translational Sciences (NCATS), 2018).
Out of some 48,000 compounds screened, about 1,200 (2.5%) were called active. Roughly 2% stayed inconclusive and do not appear here.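 How the source made its calls: active means activation of at least 60% and not above a set upper limit (about 1 call in 100 departs from these limits); inconclusive means activation of 40% to 60%, or above that upper limit; inactive means activation under 40%.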 The list shows a part of the results.

molecular target: Probable G-protein coupled receptor 32 (Homo sapiens) (UniProt O75388); assay: qHTS for Agonists of Human Resolvin D1 Receptor DRV1; settings: CHO-K1 GPR32 beta-arrestin PathHunter luminescence, 90 min; at 76.9 µM; active compounds read high; zero percent set by DMSO-only wells; further: 0% is about no effect
In short: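 Cells are plated overnight, treated with compounds in DMSO for 90 minutes at 37 °C, and developed with PathHunter detection reagent for 1 hour before luminescence is read; signal reflects beta-arrestin binding to GPR32 in engineered CHO-K1 cells.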

Chain of UniProt O75388 (O75388 whole entry, looked up): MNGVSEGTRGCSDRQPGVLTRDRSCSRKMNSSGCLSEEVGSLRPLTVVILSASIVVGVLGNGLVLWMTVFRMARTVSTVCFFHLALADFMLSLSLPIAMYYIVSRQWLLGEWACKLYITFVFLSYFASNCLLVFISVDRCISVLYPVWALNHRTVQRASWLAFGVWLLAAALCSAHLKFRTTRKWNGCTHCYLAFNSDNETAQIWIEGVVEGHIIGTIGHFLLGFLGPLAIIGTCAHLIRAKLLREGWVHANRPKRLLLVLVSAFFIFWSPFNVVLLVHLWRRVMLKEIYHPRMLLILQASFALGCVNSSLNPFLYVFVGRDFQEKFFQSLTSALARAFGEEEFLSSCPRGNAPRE

SMILES | activation
CCOc1ccc(/C=C/c2nc(C#N)c(NCc3ccc(OC)cc3)o2)cc1 | inactive: 6.15%
Cc1noc(C)c1S(=O)(=O)N(CC(=O)Nc1ccc(C(F)(F)F)cc1)c1ccc(C(C)C)cc1 | inactive: 10.2%
Clc1ccccc1CNCCCSc1nnnn1-c1ccccc1 | inactive: -14.3%
CCN(CC)S(=O)(=O)c1ccc2c(c1)N(CC(=O)Nc1cccc(C)c1C)C(=O)C1CCCN21 (stereo not given) | inactive: -12.8%
CCOC(=O)N1CCN(Cc2nc3cc(NC(=O)CC(C)C)ccc3n2C(C)C)CC1 | inactive: -8.32%
O=C(NCc1ccc2c(c1)CCN2C(=O)c1ccc(F)cc1)c1c(F)cccc1F | inactive: -13%
COc1cccc(-c2noc(-c3cc4ccccc4oc3=O)n2)c1OC | inactive: 7.27%
O=C(CCCN1CCC(O)(c2ccc(Cl)cc2)CC1)c1ccc(F)cc1 | inactive: -1.52%
Cc1ccc(NC(=O)CCN2C(=O)c3ccccc3Sc3ncccc32)cc1 | inactive: -25.6%
COc1ccc(C)cc1NC(=O)CSc1ncc2c(n1)-c1ccc(Cl)cc1N(Cc1ccccc1)S2(=O)=O | inactive: 3.24%
Nc1nonc1-c1nc2ccccc2n1CC(=O)Nc1cccc(C(F)(F)F)c1 | inactive: 17.2%
CCOc1ccccc1NC(=O)CSc1cn(CC(=O)N2CCCCCC2)c2ccccc12 | inactive: -10.4%
COc1cc(OC)c(NC(=O)C(CC(C)C)N2Cc3ccccc3C2=O)cc1Cl (stereo not given) | inactive: -31.4%
CC1=C(C(=O)Nc2ccccc2)C(c2ccc(F)cc2)n2nc(SCc3cc(C)ccc3C)nc2N1 (stereo not given) | inactive: -1.43%
CCC(C(=O)NCCc1ccc(OC)c(OC)c1)n1nc(C)c2sc3ccccc3c2c1=O (stereo not given) | inactive: -15%
Cc1cc(C)cc(-n2ccn3cnnc3c2=O)c1 | inactive: 8.65%
Cc1ccc(OCC(=O)OCc2cc(=O)n3nc(C4CC4)sc3n2)cc1C | inactive: -1.22%
CC(C)(C)C1CCc2c(sc(NC(=O)c3cc(-c4ccc(F)cc4)on3)c2C#N)C1 (stereo not given) | inactive: 3.21%
CCCN(c1ccccc1F)S(=O)(=O)c1cc(-c2cc(C)no2)ccc1C | inactive: -27.7%
COc1ccc(C)cc1NC(=O)Cn1c(=O)oc2cc(S(=O)(=O)N3CCCCCC3)ccc21 | inactive: -6.1%
CCc1ccc2occ(CC(=O)Nc3c(C(=O)c4ccc(F)cc4)oc4ccccc34)c2c1 | inactive: 3.79%
CSc1cccc(Nc2cc(C(=O)NC3CCCCC3)c3ccccc3n2)c1 | inactive: -18.9%

SMILES | activation
CCCCCCSc1nc(N)c2c3c(sc2n1)CCCC3C (stereo not given) | inactive: -19.3%
Cn1nc(-c2ccccc2)c(-c2ccccc2)c(C(=O)Nc2ccccc2C(N)=O)c1=O | inactive: -12.5%
Cc1cc(C)cc(N2C(=O)CSC23C(=O)N(CC(N)=O)c2ccccc23)c1 (stereo not given) | inactive: -3.78%
CN(C)c1ccc(-c2nc3ccc(Cl)cn3c2Nc2ccc3c(c2)OCCO3)cc1 | inactive: -12.4%
CCCN(CCC)c1cc(C)nc2nc(-c3ccc(C(C)(C)C)cc3)nn12 | inactive: -13.2%
Cc1ccc(C)c(N2CCN(C3(c4ccccc4)C(=O)c4ccccc4C3=O)CC2)c1 | inactive: -28.8%
CCOCCCNC(=O)Cn1ncc2c([nH]c3ccc(C)cc32)c1=O | inactive: -2.6%
COCCN(Cc1ccc(C)c(Br)c1)S(=O)(=O)c1ccc2[nH]c(=O)ccc2c1 | inactive: -9.43%
CC(=O)N1CCc2cc(Br)cc(S(=O)(=O)CCC(=O)N3CCN(c4cccc(C)c4C)CC3)c21 | inactive: 1.74%
CCOC(=O)c1ccc(NC(=O)c2cc(=O)c3ccc(C)c(C)c3o2)cc1 | inactive: -13.5%
NCC(=O)CCC(=O)O | inactive: 10.5%
CCn1c(=O)c2sccc2n2c(CCCC(=O)Nc3ccc(Oc4ccccc4)cc3)nnc12 | inactive: 4.56%
O=C(Nc1ccc(Br)cc1)c1cc(S(=O)(=O)N2CCc3ccccc32)ccc1F | inactive: -13.2%
CCOc1ccccc1CNC(=O)CN1C(=O)c2cccnc2Oc2ccc(C)cc21 | inactive: -13.2%
CCN1C(=O)C2(c3ccccc31)c1c(oc3ccccc3c1=O)C(=O)N2CCOC (stereo not given) | inactive: -15.7%
COc1ccc(-c2noc(CC(=O)N(C)c3cc(Cl)c(OC)cc3OC)n2)cc1 | inactive: -12.5%
CCCCN(C)C(=O)c1ccc2c(c1)NC(=O)C(CC(C)C)N2 (stereo not given) | inactive: -26.9%
COc1ccc(OC)c(NC(=O)N2CCC3(CC2)Oc2ccccc2C(=O)N3Cc2ccccc2F)c1 | inactive: -20.8%
Cc1ccc(NC(=O)c2nc(S(C)(=O)=O)ncc2N(Cc2ccco2)Cc2ccco2)cc1 | inactive: -27.6%
Cc1cc(C)cc(OCC(=O)N(Cc2ccco2)Cc2ccccc2Cl)c1 | inactive: -21.4%
COc1ccc(NC(=O)CN2C(=O)C(=O)c3ccccc32)c(OC)c1 | inactive: -55.9%
Cc1c(C(=O)Nc2ccccc2F)sc2nc3n(c(=O)c12)CCC3 | inactive: 0.727%

SMILES | activation
CN(Cc1ccccc1)c1nc2c(S(=O)(=O)c3ccccc3)nnn2c2ccsc12 | inactive: -6.48%
Cc1ccc(S(=O)(=O)c2nnn3c2nc(NC2CCCCC2)c2sccc23)cc1C | inactive: -25.4%
Cc1ccc(OCCSc2nc3ccccc3n2CCC(=O)O)cc1 | inactive: -10.1%
Cc1ccc(-c2nc(-c3cccs3)c(-c3cccs3)[nH]2)cc1 | inactive: -12%
COc1ccc(C)cc1-n1c(SCC(=O)NCc2ccco2)nc2c([nH]c3ccccc32)c1=O | inactive: -23.4%
COc1ccc(CNC(=O)CCc2c(C)nc3c4cccnc4nn3c2C)cc1 | inactive: -1.73%
COc1ccc(CC(=O)Nc2nnc3n2CCS3)cc1OC | inactive: -1.68%
CCc1ccccc1NC(=O)Cn1nnc(C(=O)NCc2cccc(OC)c2)c1N | inactive: -4.06%
Cc1ccc(NC(=O)Cn2c(=O)n(CC(=O)NCCc3ccccc3)c(=O)c3ccccc32)cc1 | inactive: -3.56%
CC1CCc2nc3ncn(Cc4cccc(F)c4)c(=O)c3cc2C1 (stereo not given) | inactive: -12.9%
CNC(=O)C1CCC(Cn2c(=O)c3sccc3n(CC(=O)Nc3ccccc3)c2=O)CC1 (stereo not given) | inactive: -1.38%
O=C(Nc1ncc(Cc2ccccc2Cl)s1)c1ccc2c(c1)CC(c1ccccc1)OC2=O (stereo not given) | inactive: 1.91%
CCCCN(CC)CCCNC(=O)c1nn(-c2ccc(OC)cc2)c(=O)c2c1c1ccccc1n2C | inactive: -2.83%
Cc1ccc(CCNC(=O)CCCn2c(=O)c3cccn3c3ccc(F)cc32)cc1 | inactive: -5.91%
CCCCN(CC)CCCNC(=O)c1sc2nc3n(c(=O)c2c1C)CCCCC3 | inactive: -1.18%
COCCNC(=O)c1cc(-c2cccc(Cl)c2)on1 | inactive: -2.41%
O=C(CN1C(=O)COc2ccc(Cl)cc21)Nc1cccc(C(=O)O)c1 | inactive: 45.4%
Cc1ccc(C)c(N2CCN(C(=O)NCc3noc4ccccc34)CC2)c1 | inactive: -5.43%
COC(=O)c1ccc2c(c1)N(CC(=O)Nc1ccc(C)c(C)c1)C(=O)c1ccccc1S2 | inactive: -13.7%
CCS(=O)(=O)N1CCc2cc(C(=O)Nc3cc(C)cc(C)c3)ccc21 | inactive: -6.03%
Cc1cc2oc(C(=O)Nc3sc4c(c3C(=O)NCC3CCCO3)CCCC4)cc(=O)c2cc1C (stereo not given) | inactive: -2.41%
Cc1ccc2nc(Nc3cccc(C(F)(F)F)c3)c3nnnn3c2c1 | inactive: -10.2%

SMILES | activation
Cn1c(=O)c2c(-c3ccc(Cl)cc3)ccnc2n(C)c1=O | inactive: 25.2%
O=S(=O)(NCC(c1ccco1)N1CCN(c2ccc(F)cc2)CC1)c1cc(F)ccc1F (stereo not given) | inactive: -26.3%
CCc1c(C)sc(NC(=O)c2cc(-c3ccc(OC)c(OC)c3)on2)c1C#N | inactive: -9.82%
COc1ccc(OC)c(CCNc2nc3cc(OC)c(OC)cc3c3nc(-c4cccnc4)nn23)c1 | inactive: -1.46%
CCCCN(CC)CCNC(=O)CN1C(=O)COc2ccc(S(=O)(=O)N3CCOCC3)cc21 | inactive: -7.78%
COc1ccc(S(=O)(=O)N2CCCCC2)cc1C(=O)NC1CCS(=O)(=O)C1 (stereo not given) | inactive: -12.9%
CCOc1ccccc1CNC(=O)CN1C(=O)c2cccnc2Oc2ccc(Cl)cc21 | inactive: 0.166%
CCS(=O)(=O)N1CCC2(CC1)OC(=O)C(C)=C2C(=O)NCc1ccc(OC)c(OC)c1 | inactive: 7.23%
Cc1ccc(C(=O)c2cn(Cc3ccccc3)c3c(F)cc(F)cc3c2=O)cc1 | inactive: 39%
O=C(Nc1ccccc1)c1ccc(Cl)c(S(=O)(=O)Nc2ccccc2)c1 | active: 91.4%
CCC1Oc2ccccc2N(CC(=O)NCc2ccccc2)C1=O (stereo not given) | inactive: -15.8%
Cc1cc(Nc2cccc(Cl)c2)nc2ccc(NC(=O)Cc3c(F)cccc3Cl)cc12 | inactive: 6.4%
COc1ccc(N2CCN(C(=O)c3cn(C)c4ccc(S(=O)(=O)N5CCOCC5)cc4c3=O)CC2)cc1 | inactive: -3.38%
COc1ccc2nc(N(Cc3cccnc3)C(=O)c3ccc(Cl)cc3)sc2c1 | inactive: -13.9%
Cn1c(=O)c(=O)n(C)c2cc(N3CCCC3)c(NC(=O)c3ccccc3Cl)cc21 | inactive: 1.25%
CCN(CC)c1ccc2nc3c(=O)n(C)c(=O)n(C)c3nc2c1 | inactive: -14.1%
Cc1nn(CC(=O)N2CCN(c3ccccc3F)CC2)c(=O)c2cccn12 | inactive: 7.12%
CC(C)c1ccc(NC(=O)[C@H]2O[C@@H]3OC(C)(C)O[C@@H]3[C@H]3OC(C)(C)O[C@H]32)cc1 | inactive: 36.7%
Cc1cc(OC(C)C(=O)N(Cc2ccco2)Cc2ccco2)cc(C)c1Cl (stereo not given) | inactive: 9.06%
